Experimental data as given in PubChem BioAssay (NCI).
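Each compound was tested at five concentrations against cells in 96-well plates for 48 hours. GI50: concentration for 50% inhibition of growth.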 Certain results were filed several times, with different values. This list holds those alone. There may be further records. For some of these results: Records of one sample usually come from different ranges of test concentrations, which the source does not state; some values may only mark the edge of a range. For some of these results: The values listed for one entry are repeated measurements (runs, samples, wells, individuals or studies). Marks in square brackets tell the records apart. The letters are not those of the source and start again with each entry.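 The concentration for full growth arrest is given as TGI.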

What was measured:
Experiment in all cases: NCI-60 cell line screen, 48 h
HOP-92 NSCLC = system: HOP-92 NSCLC
CAKI-1 renal = system: CAKI-1 renal
EKVX NSCLC = system: EKVX NSCLC
OVCAR-8 ovarian = system: OVCAR-8 ovarian
SF-268 CNS = system: SF-268 CNS
HCT-15 colon = system: HCT-15 colon
M14 melanoma = system: M14 melanoma
NCI-H23 lung = system: NCI-H23 lung
UO-31 renal = system: UO-31 renal
SNB-19 CNS = system: SNB-19 CNS
NCI-H226 lung = system: NCI-H226 lung
COLO 205 colon = system: COLO 205 colon
XF 498 CNS = system: XF 498 CNS
LXFL 529 NSCLC = system: LXFL 529 NSCLC
UACC-257 melanoma = system: UACC-257 melanoma
CCRF-CEM leukemia = system: CCRF-CEM leukemia
HOP-18 NSCLC = system: HOP-18 NSCLC
RXF-631 renal = system: RXF-631 renal
A498 renal = system: A498 renal
HT29 colon = system: HT29 colon
SNB-78 CNS = system: SNB-78 CNS
SF-539 CNS = system: SF-539 CNS
SK-MEL-5 melanoma = system: SK-MEL-5 melanoma
HCT-116 colon = system: HCT-116 colon
DMS 114 small cell lung = system: DMS 114 small cell lung
K-562 leukemia = system: K-562 leukemia
DMS 273 small cell lung = system: DMS 273 small cell lung
HCC-2998 colon = system: HCC-2998 colon
U251 CNS = system: U251 CNS
M19-MEL melanoma = system: M19-MEL melanoma
A549 NSCLC = system: A549 NSCLC
SN12C renal = system: SN12C renal
NCI-H522 lung = system: NCI-H522 lung
SK-MEL-28 melanoma = system: SK-MEL-28 melanoma
RPMI-8226 leukemia = system: RPMI-8226 leukemia
HOP-62 NSCLC = system: HOP-62 NSCLC
SK-MEL-2 melanoma = system: SK-MEL-2 melanoma
786-0 renal = system: 786-0 renal
SNB-75 CNS = system: SNB-75 CNS
MALME-3M melanoma = system: MALME-3M melanoma
MOLT-4 leukemia = system: MOLT-4 leukemia
HL-60(TB) leukemia = system: HL-60(TB) leukemia
OVCAR-4 ovarian = system: OVCAR-4 ovarian
OVCAR-5 ovarian = system: OVCAR-5 ovarian
RXF 393 renal = system: RXF 393 renal
SW-620 colon = system: SW-620 colon

SMILES: COc1cc2nccc(Oc3ccc(NC(=O)C4(C(=O)Nc5ccc(F)cc5)CC4)cc3)c2cc1OC
- GI50 (HOP-92 NSCLC): 362 nM [sample A, 1 test] and < 34.6 nM [sample B, mean of 2 tests]

SMILES: Cc1c(N)nc(C2CC(=O)N2CC(N)C(N)=O)nc1C(=O)NC(C(=O)NC(C)C(O)C(C)C(=O)NC(C(=O)NCCc1nc(-c2nc(C(=O)NCCNCC(C)O)cs2)cs1)C(C)O)C(OC1OC(CO)C(O)C(O)C1OC1OC(CO)C(O)C(OC(N)=O)C1O)c1cnc[nH]1 (configuration not stated)
- TGI (CAKI-1 renal): 331 nM and > 100 µM

SMILES: Oc1ccc(/C=N/Nc2nnc(N/N=C/c3ccc(O)cc3O)c3ccccc23)c(O)c1
- TGI (EKVX NSCLC): 558 nM and > 20 µM
- TGI (OVCAR-8 ovarian): 917 nM and > 33.7 µM
- TGI (SF-268 CNS): 558 nM and 8 µM
- TGI (HCT-15 colon): 672 nM and 21.3 µM

SMILES: Cc1cc(C2(c3cc(C)c(O)c4ncccc34)OC(=O)c3ccccc32)c2cccnc2c1O
- TGI (M14 melanoma): 6.38 µM and > 100 µM
- TGI (EKVX NSCLC): 265 nM and > 100 µM
- TGI (NCI-H23 lung): 628 nM and > 100 µM
- TGI (UO-31 renal): 39 nM and > 100 µM
- TGI (SNB-19 CNS): 630 nM and > 100 µM
- TGI (NCI-H226 lung): 222 nM and 30.3 µM

SMILES: COC1=C(C)C(=O)C2=C(C1=O)C1C3CC4=C(C(=O)C(OC)=C(C)C4=O)C(CNC(=O)C(C)=O)N3C(C#N)C(C2)N1C (configuration not stated)
- TGI (COLO 205 colon): 1.29 nM [1 test] and 0.85 nM [mean of 2 tests] and 8.78 nM [mean of 6 tests]
- GI50 (XF 498 CNS): 0.205 nM [mean of 2 tests] and 11 nM [mean of 3 tests]
- TGI (XF 498 CNS): 1.35 nM [mean of 2 tests] and 26 nM [mean of 3 tests]
- GI50 (LXFL 529 NSCLC): 0.187 nM and 2.93 nM
- TGI (LXFL 529 NSCLC): 0.451 nM and 1.1 µM
- TGI (UACC-257 melanoma): 0.307 nM, 9.46 nM, < 13.3 nM
- TGI (CCRF-CEM leukemia): 5.19 nM, 1.06 µM, > 100 µM
- TGI (M14 melanoma): 0.686 nM, 34 nM, 12.3 nM
- TGI (HOP-18 NSCLC): 0.996 nM and 7.63 µM
- TGI (RXF-631 renal): 8.22 nM and 952 nM
- TGI (A498 renal): 18.8 nM [1 test] and 232 nM [mean of 4 tests]
- TGI (HT29 colon): 5.99 nM and 128 nM
- TGI (SNB-78 CNS): 0.65 nM, 148 nM, < 21.6 nM
- TGI (SF-539 CNS): 2.36 nM, 2.24 nM, 35.1 nM, < 15.6 nM
- TGI (SK-MEL-5 melanoma): 3.25 nM, 0.257 nM [1 test] and 5.13 nM [mean of 6 tests]
- TGI (EKVX NSCLC): 9.39 nM, 608 nM, 46.2 nM
- TGI (HCT-116 colon): 5.09 nM, 1.09 µM [1 test] and 1.39 µM [mean of 3 tests]
- TGI (NCI-H23 lung): 0.36 nM and 18 nM
- TGI (DMS 114 small cell lung): 0.178 nM and 4.23 nM
- TGI (K-562 leukemia): 0.0564 nM, 344 nM, 49.6 nM
- GI50 (UO-31 renal): 1.55 nM, 14.8 nM [mean of 2 tests] and 30.7 nM [mean of 6 tests]
- TGI (UO-31 renal): 5.8 nM, 47.4 nM [mean of 2 tests] and 113 nM [mean of 6 tests]
- TGI (OVCAR-8 ovarian): 5.21 nM, 53.8 nM, 67.3 nM
- TGI (DMS 273 small cell lung): 0.204 nM and 19.5 nM
- TGI (HCC-2998 colon): 1.85 nM, 22.2 nM, 20.1 nM
- TGI (U251 CNS): 1.74 µM and 119 nM
- TGI (M19-MEL melanoma): 1.17 nM and 21.3 nM
- TGI (SF-268 CNS): 7.8 nM and 299 nM
- TGI (A549 NSCLC): 57.1 nM, 4.61 µM, 1.61 µM
- GI50 (SN12C renal): 0.0806 nM [mean of 2 tests] and 3.39 nM [mean of 6 tests]
- TGI (NCI-H522 lung): 1.73 nM, 0.06 nM, 3.29 nM
- TGI (SK-MEL-28 melanoma): 0.875 nM, 18 nM, < 25.5 nM
- TGI (RPMI-8226 leukemia): 0.632 nM, 10.5 nM, 82.4 nM
- TGI (HCT-15 colon): 8.57 nM, < 33.5 nM [mean of 2 tests] and 355 nM [mean of 4 tests]
- TGI (HOP-62 NSCLC): 4.37 nM, 122 nM, 108 nM
- TGI (SK-MEL-2 melanoma): 0.158 nM, 3.02 nM, 4.93 nM
- TGI (786-0 renal): 8.31 nM, 428 nM [1 test] and 1.42 µM [mean of 5 tests]
- TGI (SNB-75 CNS): 2.93 nM, 13.5 nM, 16.6 nM, < 14.2 nM
- TGI (MALME-3M melanoma): 0.301 nM, 6.03 nM, < 17.1 nM
- TGI (MOLT-4 leukemia): 4.84, 2.37, 200, 135 nM
- TGI (HL-60(TB) leukemia): 0.862 nM, 1.06 nM, 89.9 nM
- TGI (NCI-H226 lung): 4.89 nM, 53.2 nM, < 23.9 nM
- TGI (OVCAR-4 ovarian): 3.04 nM, 189 nM, 74.1 nM

SMILES: COc1ccc2c3c(c4cc(OC)c(OC)cc4c2c1)C[C@H]1CCCCN1C3
- GI50 (UACC-257 melanoma): > 50 µM [1 test] and 5.14 nM [mean of 6 tests]
- TGI (UACC-257 melanoma): > 50 µM [1 test] and 12.8 nM [mean of 6 tests]
- GI50 (OVCAR-5 ovarian): > 50 µM [1 test] and 5 nM [mean of 5 tests]
- TGI (OVCAR-5 ovarian): > 50 µM [1 test] and 28.6 nM [mean of 5 tests]
- TGI (HT29 colon): 0.00218 nM and 6.03 nM
- GI50 (SF-268 CNS): 0.00231 nM [1 test] and 5 nM [mean of 5 tests]
- TGI (SF-268 CNS): 0.5 nM [1 test] and 12.9 nM [mean of 5 tests]
- GI50 (SK-MEL-28 melanoma): 0.00253 nM [1 test] and 5 nM [mean of 5 tests]
- TGI (SK-MEL-28 melanoma): 0.5 nM [1 test] and 8.85 nM [mean of 5 tests]
- GI50 (RXF 393 renal): 0.00327 nM [1 test] and 5 nM [mean of 5 tests]
- TGI (RXF 393 renal): 0.5 nM [1 test] and 6.02 nM [mean of 5 tests]
- TGI (SW-620 colon): 0.00673 nM [1 test] and 53.1 nM [mean of 4 tests]
